This note sets out measurements from the supplement of paper PMC12217912.

This is one part of the list. The full chains were built here from the parent and the listed change. Inactive controls read about 0.05.

The labels stand for the following.
B1: TEV protease; numbered along this chain (parent)
chain: MGESLFKGPRDYNPISSSICHLTNESDGHTTSLYGIGFGPFIITNKHLFRRNNGTLVVQSLHGVFKVKDTTTLQQHLVDGRDMIIIRMPKDFPPFPQKLKFREPQREERICLVTTNFQTKSMSSMVSDTSCTFPSGDGIFWKHWIQTKDGQCGSPLVSTRDGFIVGIHSASNFTNTNNYFTSVPKNFMELLTNQEAQQWVSGWRLNADSVLWGGHKVFMVKPEEPFQPVKEATQL

The variants in the assay derive from B1. As to the kind of experiment: raw area under fraction-flipped curve 0-4 h after induction (AUC4h, not background-subtracted), DNA-recorder readout of cleavage of the substrate (dimensionless); higher = more cleavage of the substrate by the protease variant. As to conditions: temperature: 34 °C; time window: 0-4 h after rhamnose induction. As to the method: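 In vivo DNA recorder in E. coli TOP10(DE3) ΔrhaA at 34 °C. Each TEVp single-site mutant (parent TEVp 0) is paired with a single-site variant of the 7-mer TEVs (canonical ENLYFQ|S). The substrate sits between flexible linkers in a Bxb1-sfGFP-TEVs-SsrA fusion, so cleavage stabilises Bxb1 and speeds flipping of a recombination array, read by NGS. The value is the raw area under the fraction-flipped curve over 0-4 h after rhamnose induction (AUC4h), with ≥20 reads per time point. It is not background-subtracted; inactive controls average about 0.047.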
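Further: Bxb1 expression induced with 0.2% (w/v) L-rhamnose at OD600 near 0.5, cultures sampled hourly, flipped fraction per protease–substrate barcode pair counted by paired-end Illumina sequencing.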

Consider MGESLFKGPRDYNPISSSICHLTNESDGHTTSLYGPGFGPFIITNKHLFRRNNGTLVVQSLHGVFKVKDTTTLQQHLVDGRDMIIIRMPKDFPPFPQKLKFREPQREERICLVTTNFQTKSMSSMVSDTSCTFPSGDGIFWKHWIQTKDGQCGSPLVSTRDGFIVGIHSASNFTNTNNYFTSVPKNFMELLTNQEAQQWVSGWRLNADSVLWGGHKVFMVKPEEPFQPVKEATQL [I36P], for which the “area with substrate ENLYFAS” value was found to be 0.0203, the “area with substrate ENLYFCS” value was 0.0419, the “area with substrate ENLYFES” value was 0.0364 and the “area with substrate ENLYFFS” value stood at 0.0463. The “area with substrate ENLYFIS” value turned out to be 0.031, the “area with substrate ENLYFKS” value was determined as 0.0348, the “area with substrate ENLYFMS” value is 0.0513 and the “area with substrate ENLYFNS” value was 0.0138. The “area with substrate ENLYFPS” value was determined as 0.0384, the “area with substrate ENLYFRS” value turned out to be 0.0417, the “area with substrate ENLYFSS” value was determined as 0.0344 and the “area with substrate ENLYFTS” value was 0.0309. Further, the “area with substrate ENLYFVS” value amounted to 0.0384 and the “area with substrate ENLYFWS” value came to 0.0377.
Turning to MGESLFKGPRDYNPISSSICHLTNESDGHTTSLYGIGFGPFIITNKHLFRRNNGTLVVQSLHGVFKVKDTTTVQQHLVDGRDMIIIRMPKDFPPFPQKLKFREPQREERICLVTTNFQTKSMSSMVSDTSCTFPSGDGIFWKHWIQTKDGQCGSPLVSTRDGFIVGIHSASNFTNTNNYFTSVPKNFMELLTNQEAQQWVSGWRLNADSVLWGGHKVFMVKPEEPFQPVKEATQL [L73V], the “area with substrate ENLYFAS” value was found to be 0.0605, the “area with substrate ENLYFCS” value was determined as 0.0518, the “area with substrate ENLYFDS” value amounted to 0.0646 and the “area with substrate ENLYFES” value came out at 0.0674. In addition, the “area with substrate ENLYFFS” value came to 0.0611, the “area with substrate ENLYFIS” value is 0.0565, the “area with substrate ENLYFKS” value is 0.0382 and the “area with substrate ENLYFLS” value is 0.0827. The “area with substrate ENLYFMS” value amounted to 0.0639, the “area with substrate ENLYFNS” value worked out at 0.0672, the “area with substrate ENLYFPS” value was found to be 0.0531 and the “area with substrate ENLYFRS” value came out at 0.0537. Besides, the “area with substrate ENLYFSS” value turned out to be 0.054, the “area with substrate ENLYFTS” value turned out to be 0.0569, the “area with substrate ENLYFWS” value was found to be 0.0353 and the “area with substrate ENLYFYS” value is 0.0575.
For MGESLFKGPRDYNPISSSICHLTNESDGHTTSLYGIGFGPFIITNKHLFRRNNGTLVVQSLHGVFKVKDTTTLQQHLVDGRDMIIIRMPKDFPPFPQKLKFREPQREERICLVTTNFQTKSMSSMVSDTSCTFPSGDGIFWKHWIQTKDGQCGSPLVSTRDGFIVGIPSASNFTNTNNYFTSVPKNFMELLTNQEAQQWVSGWRLNADSVLWGGHKVFMVKPEEPFQPVKEATQL [H168P], the “area with substrate ENLYFAS” value came to 0.0628, the “area with substrate ENLYFFS” value turned out to be 0.0645, the “area with substrate ENLYFIS” value amounted to 0.057 and the “area with substrate ENLYFMS” value turned out to be 0.0438. For the same variant, the “area with substrate ENLYFNS” value amounted to 0.0451, the “area with substrate ENLYFPS” value worked out at 0.0545, the “area with substrate ENLYFRS” value came out at 0.0526 and the “area with substrate ENLYFSS” value came out at 0.0489. The “area with substrate ENLYFWS” value worked out at 0.0554.
As to MGESLFKGPRDYNPISSSICHLTNCSDGHTTSLYGIGFGPFIITNKHLFRRNNGTLVVQSLHGVFKVKDTTTLQQHLVDGRDMIIIRMPKDFPPFPQKLKFREPQREERICLVTTNFQTKSMSSMVSDTSCTFPSGDGIFWKHWIQTKDGQCGSPLVSTRDGFIVGIHSASNFTNTNNYFTSVPKNFMELLTNQEAQQWVSGWRLNADSVLWGGHKVFMVKPEEPFQPVKEATQL [E25C], the “area with substrate ENLYFAS” value was 0.0565, the “area with substrate ENLYFCS” value worked out at 0.0662, the “area with substrate ENLYFDS” value stood at 0.0578 and the “area with substrate ENLYFES” value stood at 0.0568. The “area with substrate ENLYFFS” value worked out at 0.0631, the “area with substrate ENLYFGS” value is 0.0598, the “area with substrate ENLYFIS” value amounted to 0.061 and the “area with substrate ENLYFKS” value amounted to 0.0666. Further, the “area with substrate ENLYFLS” value came out at 0.0573, the “area with substrate ENLYFMS” value was 0.0644, the “area with substrate ENLYFNS” value was 0.0603 and the “area with substrate ENLYFPS” value stood at 0.0561. In addition, the “area with substrate ENLYFRS” value was 0.0572, the “area with substrate ENLYFSS” value is 0.0473, the “area with substrate ENLYFTS” value stood at 0.0606 and the “area with substrate ENLYFVS” value came to 0.0631. In addition, the “area with substrate ENLYFWS” value is 0.0555 and the “area with substrate ENLYFYS” value was found to be 0.043.
With MGESLFKGPRDYNPISSSICHLTNESDGHTTSLYGIGFGPFIITNKHLFRRNNGTLVVQSLHGVFKVKDTTTLQQHLVDGRDMIIIRMPKDFPPFPQKLKFREPQREERICLVTTNFQTKSMSSMVSDTSCTFPSGDGIFWKHWIQTKDGQCGSPLVSTRDGFIVGIHSASNFTNTNNYFTSVPKNFMELLTNQEAQQWVSGWRLNAHSVLWGGHKVFMVKPEEPFQPVKEATQL [D208H], the “area with substrate ENLYFAS” value came to 0.0456, the “area with substrate ENLYFES” value stood at 0.0597, the “area with substrate ENLYFIS” value was 0.0791 and the “area with substrate ENLYFNS” value was found to be 0.0616. Moreover, the “area with substrate ENLYFPS” value is 0.053, the “area with substrate ENLYFTS” value is 0.0432, the “area with substrate ENLYFWS” value was 0.0704 and the “area with substrate ENLYFYS” value was found to be 0.0428.
Consider MGESLFKGPRDYNPISSSICHLTNESDGHTTSLYGIGFGPFIITNKHLFRRNNGTLVVQSLHGVFKVKDTTTLQQHLVDGRDMIIIRMPKDFPPFQQKLKFREPQREERICLVTTNFQTKSMSSMVSDTSCTFPSGDGIFWKHWIQTKDGQCGSPLVSTRDGFIVGIHSASNFTNTNNYFTSVPKNFMELLTNQEAQQWVSGWRLNADSVLWGGHKVFMVKPEEPFQPVKEATQL [P96Q], for which the “area with substrate ENLYFAS” value came out at 0.0458, the “area with substrate ENLYFIS” value came to 0.0589, the “area with substrate ENLYFMS” value stood at 0.0594 and the “area with substrate ENLYFPS” value was determined as 0.0665. The “area with substrate ENLYFVS” value was found to be 0.0498.
With MGELLFKGPRDYNPISSSICHLTNESDGHTTSLYGIGFGPFIITNKHLFRRNNGTLVVQSLHGVFKVKDTTTLQQHLVDGRDMIIIRMPKDFPPFPQKLKFREPQREERICLVTTNFQTKSMSSMVSDTSCTFPSGDGIFWKHWIQTKDGQCGSPLVSTRDGFIVGIHSASNFTNTNNYFTSVPKNFMELLTNQEAQQWVSGWRLNADSVLWGGHKVFMVKPEEPFQPVKEATQL [S4L], the “area with substrate ENLYFAS” value worked out at 0.0621, the “area with substrate ENLYFCS” value turned out to be 0.0623, the “area with substrate ENLYFDS” value stood at 0.0592 and the “area with substrate ENLYFES” value is 0.0617. Besides, the “area with substrate ENLYFFS” value was determined as 0.0656, the “area with substrate ENLYFGS” value turned out to be 0.0592, the “area with substrate ENLYFHS” value turned out to be 0.0645 and the “area with substrate ENLYFIS” value turned out to be 0.0614. Further, the “area with substrate ENLYFKS” value was 0.0679, the “area with substrate ENLYFMS” value worked out at 0.0652, the “area with substrate ENLYFNS” value came to 0.0512 and the “area with substrate ENLYFPS” value turned out to be 0.064. For the same variant, the “area with substrate ENLYFRS” value stood at 0.0671, the “area with substrate ENLYFSS” value was determined as 0.0618, the “area with substrate ENLYFTS” value amounted to 0.061 and the “area with substrate ENLYFVS” value was 0.0645. Moreover, the “area with substrate ENLYFWS” value amounted to 0.0539 and the “area with substrate ENLYFYS” value worked out at 0.0613.
For MGESLFKGPRDYNPISSSICHLTNESDGHTTSLYGIGFGPFIITNKHLFRRNNGTLVVQSLHGVFKVKDTTTLQQHLVDGRDMIIIRMPKDFPPFPQKLKFREPQREERICLVTTNFQTKSMSSMVSDTSCTFPSGDGIFWKHWIQTKDGQCGSPLVSTRDGFIVGIHSASNFTNTNNYFTSVRKNFMELLTNQEAQQWVSGWRLNADSVLWGGHKVFMVKPEEPFQPVKEATQL [P184R], the “area with substrate ENLYFAS” value is 0.075, the “area with substrate ENLYFDS” value was found to be 0.0557, the “area with substrate ENLYFES” value was 0.0621 and the “area with substrate ENLYFIS” value amounted to 0.0318. Besides, the “area with substrate ENLYFNS” value worked out at 0.0568, the “area with substrate ENLYFSS” value amounted to 0.0469 and the “area with substrate ENLYFTS” value stood at 0.0458.
As to MGNSLFKGPRDYNPISSSICHLTNESDGHTTSLYGIGFGPFIITNKHLFRRNNGTLVVQSLHGVFKVKDTTTLQQHLVDGRDMIIIRMPKDFPPFPQKLKFREPQREERICLVTTNFQTKSMSSMVSDTSCTFPSGDGIFWKHWIQTKDGQCGSPLVSTRDGFIVGIHSASNFTNTNNYFTSVPKNFMELLTNQEAQQWVSGWRLNADSVLWGGHKVFMVKPEEPFQPVKEATQL [E3N], the “area with substrate ENLYFAS” value came to 0.0641, the “area with substrate ENLYFCS” value was determined as 0.059, the “area with substrate ENLYFES” value worked out at 0.0466 and the “area with substrate ENLYFGS” value turned out to be 0.0631. The “area with substrate ENLYFKS” value came to 0.0256, the “area with substrate ENLYFMS” value worked out at 0.0668, the “area with substrate ENLYFPS” value worked out at 0.0359 and the “area with substrate ENLYFRS” value was determined as 0.0656.
For the variant MGESLFKGPRDYNPISSSICHLTNESDGHTTSLYGIGFGPFIITNKHLFRRNNGTLVVQSLHGVFKVKDTTTLQQHLVDVRDMIIIRMPKDFPPFPQKLKFREPQREERICLVTTNFQTKSMSSMVSDTSCTFPSGDGIFWKHWIQTKDGQCGSPLVSTRDGFIVGIHSASNFTNTNNYFTSVPKNFMELLTNQEAQQWVSGWRLNADSVLWGGHKVFMVKPEEPFQPVKEATQL [G80V], the “area with substrate ENLYFAS” value came to 0.0574, the “area with substrate ENLYFCS” value was determined as 0.0537, the “area with substrate ENLYFDS” value is 0.049 and the “area with substrate ENLYFES” value came to 0.0625. The “area with substrate ENLYFFS” value amounted to 0.0651, the “area with substrate ENLYFGS” value is 0.0495, the “area with substrate ENLYFHS” value came to 0.0749 and the “area with substrate ENLYFIS” value was 0.0514. Besides, the “area with substrate ENLYFKS” value was found to be 0.062, the “area with substrate ENLYFMS” value was found to be 0.0742, the “area with substrate ENLYFPS” value came to 0.0551 and the “area with substrate ENLYFSS” value was determined as 0.0611. In addition, the “area with substrate ENLYFTS” value is 0.0486, the “area with substrate ENLYFVS” value turned out to be 0.0396, the “area with substrate ENLYFWS” value came out at 0.0597 and the “area with substrate ENLYFYS” value is 0.0556.
